Data reported in PubChem BioAssay (NCATS).
Some of the results follow. Shown are side measurements of this screen, not its main read-out; they come without a call. Compounds called inactive in the main read-out are mostly missing here. Words in brackets tell the shape of the fitted curve; partial curves, single points and poor fits give uncertain potencies.

Target: Nicotinamide N-methyltransferase (Homo sapiens) (UniProt P40261)
Assay: Confirmatory Screen for Target Class Profiling of Small Molecule Inhibitors of Methyltransferases (AID 1745852);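 note: inhibitor potency for blocking SAH production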
Settings: MTase-Glo luminescence, SAH detection, recombinant enzyme; measured here: NNMT inhibition potency
Tags give direction and shape of the fitted curve.

Sequence of UniProt P40261 (P40261 whole entry, looked up): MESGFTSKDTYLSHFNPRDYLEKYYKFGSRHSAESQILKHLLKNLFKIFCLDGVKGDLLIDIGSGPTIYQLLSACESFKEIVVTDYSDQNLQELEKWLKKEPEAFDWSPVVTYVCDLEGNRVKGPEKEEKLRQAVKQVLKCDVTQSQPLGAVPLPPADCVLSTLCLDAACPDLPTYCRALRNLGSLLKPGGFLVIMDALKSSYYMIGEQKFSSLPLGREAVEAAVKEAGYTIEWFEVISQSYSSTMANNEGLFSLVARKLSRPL

SMILES | IC50
COc1ncccc1-c1cc2c(ccn2CC2CCN([S+](C)(=O)[O-])CC2)c(N2CCOCC2)n1 | 6.07 µM [falling, partial curve, poor fit]
COc1ccc(CN2C(=O)c3cc4sccc4n3CC2(C)C(=O)NC2CCC(C)CC2)cc1OC (stereo not given) | 3.41 µM [falling, full curve]
COc1cc2c(cc1OC)CN(C(=O)/C=C/c1c(-c3ccccc3)n(C)c3ncccc13)CC2 | 12.1 µM [falling, partial curve]
CCN(CC)C(=O)c1ccc(Nc2nc(OCC3CCCCC3)c3[nH]cnc3n2)cc1 | 19.2 µM [falling, partial curve]
O=C(c1ccc(Cl)cc1)N1CCN(c2ccnc3cc(Cl)ccc23)CC1 | 27.1 µM [falling, single point]
CC1(C(=O)NC2CCCCCC2)Cn2c(c(-n3cccc3)c3ccccc32)C(=O)N1CC1CCCO1 (stereo not given) | 17.1 µM [falling, partial curve]
CC(C)(C)c1ccc(C(=O)Nc2cc(Cl)c(Br)cc2C(=O)O)cc1 | 27.1 µM [falling, partial curve]
CC(C)OCCCn1c(=O)c2ccccc2n2c(CCC(=O)N3CCN(c4cccc(Cl)c4)CC3)nnc12 | 21.5 µM [falling, partial curve]
CN(c1ccccc1CNc1nc(Nc2ccc3c(c2)CC(=O)N3)ncc1C(F)(F)F)S(C)(=O)=O | 21.5 µM [falling, partial curve]
CC1CCN(C(c2ccc(F)cc2)c2ccc(C(C)C(=O)O)cc2-c2ccc(C(F)(F)F)cc2)CC1 (stereo not given) | 21.5 µM [falling, partial curve]
CC(C)Cn1c(=O)c2ccccc2n2c(CCC(=O)N3CCN(c4ccccc4F)CC3)nnc12 | 19.2 µM [falling, partial curve]
C/C=C/c1ccc2c(c1)[C@@H](C)[C@H](c1ccc(O)cc1)O2 | 19.2 µM [falling, partial curve]
COc1c2c(c(C)c3c1C(=O)OC3)O[C@@]1(C)C[C@@H](OC(C)=O)[C@]34O[C@](OC)(CC[C@]3(C)[C@H]1C2)OC4(C)C | 10.5 µM [falling, partial curve]
CC(F)(F)CN1CCOc2c(nn(-c3ccccc3Cl)c2-c2ccc(Cl)cc2)C1=O | 24.1 µM [falling, partial curve]
COc1ccc(C(=O)N(CCC(C)C)Cc2nc(C)c(C)n2Cc2ccccc2C)c(OC)c1 | 15.2 µM [falling, partial curve]
C[C@H]1CN(C(=O)Nc2ccc(F)cc2F)C[C@@H]1c1nc(-c2ccccc2)no1 | 2.43 µM [falling, full curve]
CC1=CC(=O)[C@@]2(C(C)C)C[C@@H]12 | 24.1 µM [falling, single point]
Cc1ccc2c(c1)c(-n1cccc1)c1n2CC(C)(C(=O)NCCC(C)C)N(Cc2cccnc2)C1=O (stereo not given) | 19.2 µM [falling, partial curve]
Clc1ccc(Cn2c(Cc3ccccc3)nc3ccccc32)cc1 | 19.2 µM [falling, partial curve]
O=C(O)c1cccc(CN2C(=O)/C(=C(\c3ccccc3)c3ccc(Cl)cc3)c3ccccc32)c1 | 27.1 µM [falling, partial curve]
